Publication PMC4336329 (PLoS ONE, 2015)
Hit rate of the full screen: of about 310,000 compounds, about 14,000 (4.5%) showed an effect of 50% or more. Effects have a minus sign here. Some of the results follow.

Each molecule was assayed against human ether-à-go-go-related gene (hERG) potassium channel (human, UniProt Q12809) (assay: primary screen, population patch clamp on CHO cells stably expressing hERG).
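Further: peak tail current of the secondary pulse compared with the same well before compound.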

human ether-à-go-go-related gene (hERG) potassium channel, sequence (Q12809 whole entry, looked up): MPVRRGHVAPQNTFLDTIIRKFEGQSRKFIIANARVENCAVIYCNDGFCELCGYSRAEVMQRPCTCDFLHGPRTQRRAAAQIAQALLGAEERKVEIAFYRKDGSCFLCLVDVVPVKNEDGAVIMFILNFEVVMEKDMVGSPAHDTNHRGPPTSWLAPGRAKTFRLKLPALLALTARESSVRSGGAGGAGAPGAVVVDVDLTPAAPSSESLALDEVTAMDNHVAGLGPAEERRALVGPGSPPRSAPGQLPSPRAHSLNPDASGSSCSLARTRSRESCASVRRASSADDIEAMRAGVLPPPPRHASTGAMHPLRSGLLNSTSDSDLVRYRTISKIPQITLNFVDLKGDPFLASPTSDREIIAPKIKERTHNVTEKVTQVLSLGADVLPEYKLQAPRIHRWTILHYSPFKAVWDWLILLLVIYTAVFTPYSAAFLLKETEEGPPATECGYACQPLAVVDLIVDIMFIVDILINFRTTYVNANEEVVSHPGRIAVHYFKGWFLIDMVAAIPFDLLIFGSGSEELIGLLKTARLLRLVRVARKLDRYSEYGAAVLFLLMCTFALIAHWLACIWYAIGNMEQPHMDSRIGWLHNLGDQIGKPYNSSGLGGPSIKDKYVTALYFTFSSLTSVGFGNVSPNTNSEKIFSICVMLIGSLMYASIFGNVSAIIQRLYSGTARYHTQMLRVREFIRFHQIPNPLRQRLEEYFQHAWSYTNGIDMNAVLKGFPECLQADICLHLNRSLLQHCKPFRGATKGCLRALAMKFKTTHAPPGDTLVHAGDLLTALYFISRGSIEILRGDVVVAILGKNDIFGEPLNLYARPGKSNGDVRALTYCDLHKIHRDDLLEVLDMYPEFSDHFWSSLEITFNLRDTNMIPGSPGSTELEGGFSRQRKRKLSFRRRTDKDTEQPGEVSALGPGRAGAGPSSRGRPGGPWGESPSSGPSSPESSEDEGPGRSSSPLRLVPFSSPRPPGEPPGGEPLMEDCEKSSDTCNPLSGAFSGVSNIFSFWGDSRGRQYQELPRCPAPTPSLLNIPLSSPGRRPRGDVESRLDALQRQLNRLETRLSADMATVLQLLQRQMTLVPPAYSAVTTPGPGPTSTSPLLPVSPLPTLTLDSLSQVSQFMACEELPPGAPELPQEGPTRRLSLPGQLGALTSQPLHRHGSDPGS

Row | SMILES | hERG current change (%, negative = inhibition) at 10uM
1 | CCOc1ccccc1OCCCC(=O)N(CC)CC(=O)Nc1ccc(NC(C)=O)cc1 | 10.1%
2 | Cc1ccnc(SCC(=O)N2CCN(c3cccc(Cl)c3)CC2)n1 | -25.2%
3 | Cc1cc(N2CCCC2=O)cc(C)c1CN1C(=O)c2ccccc2C1=O | 19.1%
4 | Cc1cccc(N2CCN(C(=O)c3ccncc3)CC2C)c1 (centres unmarked) | 6.99%
5 | N#C/C(=C\c1ccc(OCc2ccc(C(=O)O)cc2)cc1)C(=O)NCc1ccccc1 | 10.3%
6 | COc1cccc2sc(NC(=O)c3ccc(S(=O)(=O)N4CCOCC4)cc3)nc12 | 7.21%
7 | O=C1NC(=O)C(=Cc2ccc(Oc3ccc([N+](=O)[O-])cc3)cc2)C(=O)N1 | -25%
8 | O=C(Cn1c(=O)c2cccn2c2ccccc21)Nc1ccc(F)cc1F | -0.446%
9 | CCOC(=O)c1cnn(-c2cc(Oc3cccc(C)c3)ncn2)c1N | 10.6%
10 | COC(=O)C(Cc1ccccc1)NCC(=O)Nc1cccc(Cl)c1C (centres unmarked) | -8.26%
11 | CNc1c(NS(=O)(=O)c2ccc(Br)cc2)c(=O)oc2ccccc12 | -7.72%
12 | O=c1ccc2cc(S(=O)(=O)Nc3ccccc3F)ccc2o1 | 11.2%
13 | Cc1ccc(C(=O)OCC2OC3OC(C)(C)OC3C2O)cc1 (centres unmarked) | 4.89%
14 | CCOC(=O)C1=C(Nc2cccc(Cl)c2)OCC1=O | -14.8%
15 | CN(Cc1ccc(Cl)s1)C(=O)CNC(=O)CNC(=O)c1ccc(Cl)cc1Cl | -56.8%
16 | Cc1cc(NC(=O)COC(=O)c2cccc(S(=O)(=O)N(C)C3CCCCC3)c2)no1 | -32.8%
17 | Cc1ccc(-n2c(N)c(C(=O)Nc3c(C)n(C)n(-c4ccccc4)c3=O)c3nc4ccccc4nc32)cc1C | 2.72%
18 | CC/C(O)=C1\C(=O)CCCC1=NCCc1c(C)[nH]c2ccc(C)cc12 | -14%
19 | COc1ccc(S(=O)(=O)NCCC(C)C)cc1OC | 3.24%
20 | Cc1cc(Cl)nc(-n2nc(C)cc2C)n1 | 2.6%
21 | O=C(NCCCN1CCOCC1)c1ccc([N+](=O)[O-])cc1[N+](=O)[O-] | 10.5%
22 | O=C(O)c1cccc(N=NN2CCOCC2)c1 | 10.8%

Row | SMILES | hERG current change (%, negative = inhibition) at 10uM
23 | COc1ccc(Nc2nc(N)nc(C(F)(F)F)n2)c(OC)c1 | 1.11%
24 | COc1cc2c(cc1OC)C(C)=NC1(CCCCC1)C2.O=C(O)c1ccccc1O | -15.6%
25 | Cc1cccc(C)c1NC(=O)CN(C)C(=O)Cc1cccc(C(F)(F)F)c1 | 20.9%
26 | CC(C)(Oc1cccc2ccccc12)C(=O)O | -1.09%
27 | COc1cc(C2/C(=C(/O)c3ccc(F)cc3)C(=O)C(=O)N2CCCC(=O)O)ccc1O (centres unmarked) | 8.64%
28 | Cc1cccc(NC(=O)C2CCN(C(=O)NCc3ccccc3)CC2)c1C | 1.9%
29 | Cc1cc(NC(=O)c2cc(C3CC3)on2)n(-c2ccccc2)n1 | -1.78%
30 | CCOC(=O)C1=NNC(C(=O)c2ccc(C)cc2)C1c1ccc(C)cc1 (centres unmarked) | -2.99%
31 | CCOc1cc(/C=C(/NC(C)=O)C(=O)O)cc(Cl)c1OCc1ccc(Br)cc1 | -15.8%
32 | O=C(Nc1sc2c(c1C(=O)c1ccccc1)CCCC2)c1cccnc1 | 6.84%
33 | COc1ccc(CCNC(=S)NC(=O)c2ccccc2)cc1OC | 2.78%
34 | Cc1ccc(-n2nc3c(=O)n(CC(=O)NCCCc4ccccc4)nc(C)c3c2C)cc1 | 4%
35 | CN1CCN(c2ccc([N+](=O)[O-])cc2NC(=O)c2ccco2)CC1 | -66.9%
36 | COc1ccc(C(=O)CSc2nnc(NC(=O)C3CC(=O)N(c4ccccc4)C3)s2)cc1 (centres unmarked) | -7.02%
37 | COc1ccc(Cc2noc(-c3ccccc3)n2)cc1OC | -18.7%
38 | CCCOc1cccc(C2C(C(=O)c3cc4ccccc4o3)=C(O)C(=O)N2c2cc(C)on2)c1 (centres unmarked) | -7.72%
39 | COc1ccc2[nH]cc(CCNC(=O)CCC3CCCCC3)c2c1 | -8.32%
40 | COc1ccc2cc3cc(C(=O)NCc4cccs4)oc3nc2c1 | -3%
41 | Cc1ccc(-c2noc(-c3cc4ccccc4oc3=O)n2)cc1 | -8.15%
42 | O=C(N/N=C/c1cccnc1)c1cccc(N2CCCC2=O)c1 | 16.5%
43 | COc1ccc(/C=N/n2cnn(Cc3ccccc3Cl)c2=S)cc1OC | 6.83%
44 | COc1ccc(N2C(=O)CC(NNC(=O)c3cccnc3)C2=O)cc1 (centres unmarked) | 17.9%
